Read-outs that look alike come from different tables or passages of the source.
Target: human CB2 receptor (hCB2) (Homo sapiens, UniProt P34972)
Experiment: cell-based
Type: cell-based
Conditions: for +/− HCB2: agonist or inverse agonist at hCB2
[1] = groups >100 nM-10 μM and >10 μM, cAMP, CHO-K1 hCB2, read-out: EC50 HCB2

human CB2 receptor (hCB2), sequence (P34972 whole entry): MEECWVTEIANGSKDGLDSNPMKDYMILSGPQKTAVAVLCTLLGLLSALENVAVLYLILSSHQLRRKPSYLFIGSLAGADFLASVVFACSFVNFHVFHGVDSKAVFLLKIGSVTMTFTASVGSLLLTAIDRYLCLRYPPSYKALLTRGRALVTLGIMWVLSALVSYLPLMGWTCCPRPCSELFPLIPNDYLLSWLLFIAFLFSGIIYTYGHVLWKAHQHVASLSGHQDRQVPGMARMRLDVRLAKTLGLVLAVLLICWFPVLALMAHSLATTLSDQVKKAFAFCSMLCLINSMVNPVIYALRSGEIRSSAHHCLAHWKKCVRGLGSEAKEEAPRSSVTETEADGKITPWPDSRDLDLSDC

| SMILES | +/− HCB2 | EC50 [nM] | also measured |
| --- | --- | --- | --- |
| CNC(=O)[C@@H](NC(=O)c1nc(-c2ccc(F)c(C)c2)n2c1CN(C)CCC2)C(C)(C)C [Compound 347, (S)-N-(3,3-dimethyl-1-(methylamino)-1-oxobutan-2-yl)-3-(4-fluoro-3-methylphenyl)-8-methyl-6,7,8,9-tetrahydro-5H-imidazo[1,5-a][1,4]diazepine-1-carboxamide] | + |  |  |
| CN1CCCn2c(-c3ccc(F)c(Cl)c3)nc(C(=O)N[C@H](C(N)=O)C(C)(C)C)c2C1 [Compound 576, (S)-N-(1-amino-3,3-dimethyl-1-oxobutan-2-yl)-3-(3-chloro-4-fluorophenyl)-8-methyl-6,7,8,9-tetrahydro-5H-imidazo[1,5-a][1,4]diazepine-1-carboxamide] | + |  |  |
| CNC(=O)[C@@H](NC(=O)c1nc(-c2cccnc2)n2c1CN(C)CC2)C(C)(C)C [Compound 252, (S)-N-(3,3-dimethyl-1-(methylamino)-1-oxobutan-2-yl)-7-methyl-3-(pyridin-3-yl)-5,6,7,8-tetrahydroimidazo[1,5-a]pyrazine-1-carboxamide] | + |  |  |
| CC(C)(C)[C@H](CO)NC(=O)c1nc(-c2ccccc2)n2c1CNCC2 [Compound 23, (R)-N-(1-hydroxy-3,3-dimethylbutan-2-yl)-3-phenyl-5,6,7,8-tetrahydroimidazo[1,5-a]pyrazine-1-carboxamide] | + |  |  |
| CCS(=O)(=O)N1CCn2c(-c3ccccc3)nc(C(=O)NCC3CCOCC3)c2C1 [Compound 117, 7-(ethylsulfonyl)-3-phenyl-N-((tetrahydro-2H-pyran-4-yl)methyl)-5,6,7,8-tetrahydroimidazo[1,5-a]pyrazine-1-carboxamide] |  |  | EC50 [1]: > 10000 nM |
| CN1CCn2c(-c3ccccc3)nc(C(=O)NCCCO)c2C1 [Compound 229, N-(3-hydroxypropyl)-7-methyl-3-phenyl-5,6,7,8-tetrahydroimidazo[1,5-a]pyrazine-1-carboxamide] |  | > 10000 |  |
| CN1CCCn2c(-c3ccc(F)cc3F)nc(C(=O)N[C@H](C(=O)N(C)C)C(C)(C)C)c2C1 [Compound 563, (S)-3-(2,4-difluorophenyl)-N-(1-(dimethylamino)-3,3-dimethyl-1-oxobutan-2-yl)-8-methyl-6,7,8,9-tetrahydro-5H-imidazo[1,5-a][1,4]diazepine-1-carboxamide] | + |  |  |
| CC(C)(C)OC(=O)N1CCn2c(-c3ccc(Cl)cc3)nc(C(=O)N[C@H](CO)C(C)(C)C)c2C1 [Compound 34, (S)-tert-butyl 3-(4-chlorophenyl)-1-(1-hydroxy-3,3-dimethylbutan-2-ylcarbamoyl)-5,6-dihydroimidazo[1,5-a]pyrazine-7(8H)-carboxylate] | − |  |  |
| CNC(=O)[C@@H](NC(=O)c1nc(-c2cscc2C)n2c1CN(C)CCC2)C(C)(C)C [Compound 352, (S)-N-(3,3-dimethyl-1-(methylamino)-1-oxobutan-2-yl)-8-methyl-3-(4-methylthiophen-3-yl)-6,7,8,9-tetrahydro-5H-imidazo[1,5-a][1,4]diazepine-1-carboxamide] | + |  |  |
| CC(C)CN1CCn2c(-c3ccccc3)nc(C(=O)NCC(C)(C)C)c2C1 [Compound 58, 7-isobutyl-N-neopentyl-3-phenyl-5,6,7,8-tetrahydroimidazo[1,5-a]pyrazine-1-carboxamide] |  | > 10000 |  |
| CNC(=O)[C@@H](NC(=O)c1nc(-c2ccc3ccccc3c2)n2c1CN(C)CCC2)C(C)(C)C [Compound 380, (S)-N-(3,3-dimethyl-1-(methylamino)-1-oxobutan-2-yl)-8-methyl-3-(naphthalen-2-yl)-6,7,8,9-tetrahydro-5H-imidazo[1,5-a][1,4]diazepine-1-carboxamide] | + |  |  |
| CNC(=O)[C@@H](NC(=O)c1nc(-c2ccc(C(C)(C)C)cc2)n2c1CN(C)CCC2)C(C)(C)C [Compound 414, (S)-3-(4-tert-butylphenyl)-N-(3,3-dimethyl-1-(methylamino)-1-oxobutan-2-yl)-8-methyl-6,7,8,9-tetrahydro-5H-imidazo[1,5-a][1,4]diazepine-1-carboxamide] |  | > 10000 |  |
| CNC(=O)[C@@H](NC(=O)c1nc(-c2ccccc2)n2c1CN(C(=O)c1ccccc1)CCC2)C(C)(C)C [Compound 462, (S)-8-benzoyl-N-(3,3-dimethyl-1-(methylamino)-1-oxobutan-2-yl)-3-phenyl-6,7,8,9-tetrahydro-5H-imidazo[1,5-a][1,4]diazepine-1-carboxamide] | − |  |  |
| CNC(=O)[C@H](CC(C)C)NC(=O)c1nc(-c2ccc(F)c(F)c2)n2c1CN(C)CCC2 [Compound 535, (S)-3-(3,4-difluorophenyl)-8-methyl-N-(4-methyl-1-(methylamino)-1-oxopentan-2-yl)-6,7,8,9-tetrahydro-5H-imidazo[1,5-a][1,4]diazepine-1-carboxamide] | + |  |  |
| CNC(=O)[C@@H](NC(=O)c1nc(-c2cccc(F)c2F)n2c1CN(C)CC2)C(C)(C)C [Compound 261, (S)-3-(2,3-difluorophenyl)-N-(3,3-dimethyl-1-(methylamino)-1-oxobutan-2-yl)-7-methyl-5,6,7,8-tetrahydroimidazo[1,5-a]pyrazine-1-carboxamide] | + |  |  |
| CNC(=O)[C@@H](NC(=O)c1nc(-c2cnn(C)c2)n2c1CNCC2)C(C)(C)C [Compound 17, (S)-N-(3,3-dimethyl-1-(methylamino)-1-oxobutan-2-yl)-3-(1-methyl-1H-pyrazol-4-yl)-5,6,7,8-tetrahydroimidazo[1,5-a]pyrazine-1-carboxamide] |  |  | EC50 [1]: > 10000 nM |
| CC12CCC(C1)C(C)(C)C2NC(=O)c1nc(-c2ccccc2)n2c1CN(C(=O)c1ccccc1)CC2 (centres unmarked) [Compound 120, 7-benzoyl-3-phenyl-N-(1,3,3-trimethylbicyclo[2.2.1]heptan-2-yl)-5,6,7,8-tetrahydroimidazo[1,5-a]pyrazine-1-carboxamide] |  | > 10000 |  |
| CNC(=O)[C@@H](NC(=O)c1nc(-c2cncnc2)n2c1CNCC2)C(C)(C)C [Compound 19, (S)-N-(3,3-dimethyl-1-(methylamino)-1-oxobutan-2-yl)-3-(pyrimidin-5-yl)-5,6,7,8-tetrahydroimidazo[1,5-a]pyrazine-1-carboxamide] |  | > 10000 |  |
| CNC(=O)[C@@H](NC(=O)c1nc(CCCCO)n2c1CN(C)CCC2)C(C)(C)C [Compound 508, (S)-N-(3,3-dimethyl-1-(methylamino)-1-oxobutan-2-yl)-3-(4-hydroxybutyl)-8-methyl-6,7,8,9-tetrahydro-5H-imidazo[1,5-a][1,4]diazepine-1-carboxamide] |  | > 10000 |  |
| CC(C)(CO)CNC(=O)c1nc(-c2ccccc2)n2c1CN(CC1CC1)CC2 [Compound 83, 7-(cyclopropylmethyl)-N-(3-hydroxy-2,2-dimethylpropyl)-3-phenyl-5,6,7,8-tetrahydroimidazo[1,5-a]pyrazine-1-carboxamide] |  |  | EC50 [1]: > 10000 nM |
| CNC(=O)[C@@H](NC(=O)c1nc(-c2ccccc2)n2c1CN(S(=O)(=O)c1ccc(C(F)(F)F)cc1)CC2)C(C)(C)C [Compound 107, (S)-N-(3,3-dimethyl-1-(methylamino)-1-oxobutan-2-yl)-3-phenyl-7-(4-(trifluoromethyl)phenylsulfonyl)-5,6,7,8-tetrahydroimidazo[1,5-a]pyrazine-1-carboxamide] |  | > 10000 |  |
| CC(C)(C)CC(=O)c1nc(-c2ccccc2)n2c1CNCC2 [Compound 291, 3,3-dimethyl-1-(3-phenyl-5,6,7,8-tetrahydroimidazo[1,5-a]pyrazin-1-yl)butan-1-one 2,2,2-trifluoroacetate] |  | > 10000 |  |
| CNC(=O)[C@@H](NC(=O)c1nc(-c2ccsc2)n2c1CN(Cc1cncnc1)CC2)C(C)(C)C [Compound 76, (S)-N-(3,3-dimethyl-1-(methylamino)-1-oxobutan-2-yl)-7-(pyrimidin-5-ylmethyl)-3-(thiophen-3-yl)-5,6,7,8-tetrahydroimidazo[1,5-a]pyrazine-1-carboxamide] | + |  |  |
| CNC(=O)[C@@H](NC(=O)c1nc(C(=O)Nc2ccccc2)n2c1CN(C)CC2)C(C)(C)C [Compound 290, (S)-N1-(3,3-dimethyl-1-(methylamino)-1-oxobutan-2-yl)-7-methyl-N3-phenyl-5,6,7,8-tetrahydroimidazo[1,5-a]pyrazine-1,3-dicarboxamide] |  | > 10000 |  |
| CNC(=O)[C@@H](NC(=O)c1nc(-c2cccc(-c3nnc(C)o3)c2)n2c1CN(C)CCC2)C(C)(C)C [Compound 407, (S)-N-(3,3-dimethyl-1-(methylamino)-1-oxobutan-2-yl)-8-methyl-3-(3-(5-methyl-1,3,4-oxadiazol-2-yl)phenyl)-6,7,8,9-tetrahydro-5H-imidazo[1,5-a][1,4]diazepine-1-carboxamide] |  | > 10000 |  |
| CNC(=O)[C@@H](NC(=O)c1nc(-c2ccsc2)n2c1CN(S(=O)(=O)c1ccc(F)cc1)CC2)C(C)(C)C [Compound 109, (S)-N-(3,3-dimethyl-1-(methylamino)-1-oxobutan-2-yl)-7-(4-fluorophenylsulfonyl)-3-(thiophen-3-yl)-5,6,7,8-tetrahydroimidazo[1,5-a]pyrazine-1-carboxamide] |  | > 10000 |  |
| CNC(=O)[C@@H](NC(=O)c1nc(-c2cccc(C)c2)n2c1CNCC2)C(C)(C)C [Compound 8, (S)-N-(3,3-dimethyl-1-(methylamino)-1-oxobutan-2-yl)-3-m-tolyl-5,6,7,8-tetrahydroimidazo[1,5-a]pyrazine-1-carboxamide] | + |  |  |
| CNC(=O)[C@@H](NC(=O)c1nc(-c2ccccc2)n2c1CN(S(=O)(=O)c1ccc(F)cc1)CCC2)C(C)(C)C [Compound 464, (S)-N-(3,3-dimethyl-1-(methylamino)-1-oxobutan-2-yl)-8-(4-fluorophenylsulfonyl)-3-phenyl-6,7,8,9-tetrahydro-5H-imidazo[1,5-a][1,4]diazepine-1-carboxamide] |  | > 10000 |  |
| CNC(=O)[C@@H](NC(=O)c1nc(-c2ccccn2)n2c1CN(C)CCC2)C(C)(C)C [Compound 395, (S)-N-(3,3-dimethyl-1-(methylamino)-1-oxobutan-2-yl)-8-methyl-3-(pyridin-2-yl)-6,7,8,9-tetrahydro-5H-imidazo[1,5-a][1,4]diazepine-1-carboxamide] | + |  |  |
